Test results as given in publication PMC3797589.
These are yes or no findings as the source states them, for the method shown. In cells and extracts the contact can be indirect. Some results given as binding are weak or reduced against the parent protein; the word gives no strength.

The chains behind the UniProt entries cited, without tags or fusion partners. Where a name states a change or a piece, a line headed by the entry shows the natural chain unless it says otherwise.
UniProt Q07817: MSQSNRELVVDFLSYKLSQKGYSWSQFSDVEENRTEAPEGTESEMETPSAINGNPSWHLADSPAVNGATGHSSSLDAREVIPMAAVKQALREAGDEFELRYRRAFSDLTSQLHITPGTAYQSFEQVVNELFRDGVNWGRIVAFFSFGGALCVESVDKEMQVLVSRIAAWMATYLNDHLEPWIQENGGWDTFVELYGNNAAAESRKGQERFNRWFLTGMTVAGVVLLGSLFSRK
UniProt P10415: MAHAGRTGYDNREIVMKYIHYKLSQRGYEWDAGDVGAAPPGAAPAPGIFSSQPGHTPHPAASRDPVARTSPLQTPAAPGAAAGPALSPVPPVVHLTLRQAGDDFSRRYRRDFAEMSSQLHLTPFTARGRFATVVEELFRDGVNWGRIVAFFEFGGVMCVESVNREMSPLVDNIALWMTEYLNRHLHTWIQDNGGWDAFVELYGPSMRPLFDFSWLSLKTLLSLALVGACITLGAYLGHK
UniProt P38646: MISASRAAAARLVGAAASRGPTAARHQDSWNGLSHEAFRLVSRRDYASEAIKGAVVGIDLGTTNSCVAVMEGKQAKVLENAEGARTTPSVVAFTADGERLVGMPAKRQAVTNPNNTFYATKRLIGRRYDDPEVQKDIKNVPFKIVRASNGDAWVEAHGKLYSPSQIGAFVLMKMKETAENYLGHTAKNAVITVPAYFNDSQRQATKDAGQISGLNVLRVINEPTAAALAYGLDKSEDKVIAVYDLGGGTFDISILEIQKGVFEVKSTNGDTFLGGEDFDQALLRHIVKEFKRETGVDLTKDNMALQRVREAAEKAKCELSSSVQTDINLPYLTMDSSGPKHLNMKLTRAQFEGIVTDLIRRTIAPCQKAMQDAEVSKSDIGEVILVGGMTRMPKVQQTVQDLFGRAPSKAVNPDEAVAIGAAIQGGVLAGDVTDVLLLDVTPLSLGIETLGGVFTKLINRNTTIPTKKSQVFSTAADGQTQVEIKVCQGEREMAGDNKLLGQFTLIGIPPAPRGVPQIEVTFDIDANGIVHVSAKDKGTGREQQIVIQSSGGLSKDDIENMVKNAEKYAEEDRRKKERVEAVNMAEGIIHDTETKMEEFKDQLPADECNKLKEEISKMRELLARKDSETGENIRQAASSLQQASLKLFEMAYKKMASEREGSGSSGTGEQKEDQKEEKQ

Key:
[1] = molecular target: V5-tagged full length Bcl-xL (human) (UniProt Q07817); experiment: co-IP; Bcl-xL or Bcl-2 immunocomplexes from U2OS lysates (control and overexpressing cells; 250 ug protein in Nonidet P40 lysis buffer, antibody overnight at 4°C, Protein-A/G plus Agarose), Western blot with anti-mortalin antibody
[2] = molecular target: Bcl-xL (endogenous, U2OS control cells) (human (endogenous in U2OS)) (UniProt Q07817); experiment: as above
[3] = molecular target: Bcl-2 (endogenous, U2OS control cells) (human (endogenous in U2OS)) (UniProt P10415); experiment: co-IP; Bcl-xL or Bcl-2 immunoprecipitated from lysates of cells transfected with V5-tagged mortalin (full length or deletion mutants), Nonidet P40 lysis buffer, Western blot with anti-V5 tag antibody
[4] = molecular target: Bcl-xL (endogenous, U2OS control cells) (human (endogenous in U2OS)) (UniProt Q07817); experiment: as above

Row | Substance | binding [1] | binding [2] | binding [3] | binding [4]
1 | Mortalin/mtHsp70/PBP74/Grp75 (mot-2) (from UniProt P38646 47-679) | binds | binds |  | 
2 | V5-tagged mortalin deletion mutant, amino acid residues 1–435 (from UniProt P38646 47-435) (domain or fragment) |  |  | binds | binds
3 | V5-tagged mortalin deletion mutant, amino acid residues 252–679 (from UniProt P38646 252-679) (domain or fragment) |  |  | binds | binds
4 | V5-tagged mortalin deletion mutant, amino acid residues 310–679 (from UniProt P38646 310-679) (domain or fragment) |  |  | binds | binds
5 | V5-tagged mortalin deletion mutant, amino acid residues 390–679 (from UniProt P38646 390-679) (domain or fragment) |  |  | no binding | no binding
